# In PubChem BioAssay AID624171 (National Center for Advancing Translational Sciences (NCATS), 2012):
# The whole screen tested about 410,000 compounds, of which about 1,200 (0.29%) were called active. Roughly 2% stayed inconclusive and do not appear here. Calls come from the whole dose curve; as a rule, active = well fitted activation curve with a large enough effect; inconclusive = small, poorly fitted or top-dose-only effect; inactive = flat fitted curve, though single readings scatter. The list shows a part of the results, in another mix than the full data.
# Test: qHTS of Nrf2 Activators; note: nearly all actives have a fitted effect of over 65% in size; for activation: % of control where 0% means no effect
# Settings: AREc32 ARE-luciferase reporter (MCF7-derived line), luminescence, 24 h; series mostly up to 46.1 µM; activation: at the top concentration
# Text: Many diseases have some form of oxidative stress injury and ties to inflammation, causing a host of problems for the patient. The antioxidant response element (ARE) plays an important role in alleviating the harmful effects of oxidative stress. The antioxidant response element (ARE) is a transcriptional regulatory element involved in the activation of genes coding for a number of antioxidant proteins and detoxifying enzymes. These enzymes work in concert to protect tissues from oxidative insults and chemical toxicities in human hepatocytes and immune cells. The protective effects of ARE activation are primarily triggered through Nrf2 (NF-E2-related factor) binding to and activating AREs. It is known that Nrf2 controls the production of over 250 antioxidant and detoxification proteins (Hu et al., 2006), thereby protecting tissues by increasing cellular antioxidant content and suppressing inflammatory signaling pathways. The transcription factor Nrf2 is a central link between oxidative chemicals, such as phenolic antioxidants and electrophilic compounds, and the activation of ARE. Nrf2 levels are constitutively low as a consequence of its interaction with Keap1, which targets its degradation (Zipper and Mulcahy, 2002). Electrophiles react with key cysteine residues in Keap1, releasing Nrf2 and allowing its translocation to the nucleus. Once within the nucleus, Nrf2 complexes with coactivators such as p300, and binds to the AREs to induce gene transcription of cytoprotective enzymes, resulting in the prevention of toxicity. Activation of Nrf2 protects tissues by increasing cellular antioxidant content and suppressing inflammatory signaling pathways. Identifying novel and potent Nrf2 activators by using the AREc32 cell line to detect ARE activation by small molecules will lead to the identification and development of probes to study protective pathways in multiple tissues. These specific probes are essential to study the ARE pathway, and eventually to determine whether this pathway does activate genes that could protect against a host of diseases, including cardiovascular diseases, obesity, diabetes, Alzheimer's, and Parkinson's disease.
# This project's aim is to identify novel and potent Nrf2 activators by using the AREc32 cell line to detect ARE activation by small molecules, which will lead to the identification and development of probes to study the ARE pathway.
# NIH Chemical Genomics Center [NCGC]
# NIH Molecular Libraries Probe Centers Network [MLPCN]
# Assay Submitter (PI): Curtis Klaassen, University of Kansas Medical Center
# 5 uL of 1000 cells/well of AREc32_Fluc cells are seeded into 1536-well plate in OPTI-MEM medium with 5% FBS. The plates are incubated overnight at 37 deg C with 5% CO2. Then through pin tool transfer, 23 nL of compounds are added to each well before a 24 hr incubation at 37 deg C with 5% CO2. After the addition of 2.5 uL of Steady-Glo. the plates are kept at RT for 30 min, before they are read on the ViewLux.
# Potency is the fitted concentration of half-maximal effect.
SMILES,Potency,activation
Cc1ccc(NCCC(=O)c2cccs2)cc1C,active: 22.4 µM,
Cc1cc(NCc2ccco2)n2c(nc3ccccc32)c1C#N,active: 5.01 µM,
O=C(O)c1cc(-c2ccco2)nc2ccc(Br)cc12,,inactive: 18.7%
Cc1ccc(C(=O)/C=C\C(=O)c2ccc(C)cc2)cc1,,inactive: 4.02%
Clc1ccccc1CN1CCN(/N=C/C=C\c2ccco2)CC1,,inactive: 16.6%
O=C(CCn1c(=O)c2cccn2c2ccccc21)Nc1ccc(F)cc1,,inactive: 22.7%
c1ccc(CSc2ncnc3sccc23)cc1,active: 11.2 µM,
Cc1ccc(CN2CCN(/N=C/C(Br)=C\c3ccccc3)CC2)cc1,,inactive: 22.9%
O=C(CN1CCN(Cc2ccccc2)CC1)N/N=C/C=C/c1ccco1,,inactive: 16% [at 9.22 µM]
Cc1ccc(O)c(NC(=O)c2noc3c2CCCCC3)c1,,inactive: 22.5%
O=C1NC(=Nc2ccccc2)S/C1=C/c1cccs1,,inactive: 27.6%
COC(C[C@@H]1O[C@@H]1C(=O)[C@@H](C)OCc1ccccc1)OC,,inactive: -0.0164%
CC(=C/C(=O)O)/C=C/c1ccc(Cl)o1,,inactive: 16.4%
Cc1cccc(NC(=O)Nc2ccc(Br)cc2)n1,,inactive: 22.7%
CC1=NN(c2ccccc2)C(=O)/C1=C/C=C/c1ccccc1,active: 11.2 µM,
O=C(COc1cccnc1[N+](=O)[O-])Nc1cccc2ccccc12,active: 5.62 µM,
O=C1/C(=C\c2ccc3c(c2)OCO3)CCC/C1=C/c1ccc2c(c1)OCO2,,inactive: 7.34%
Oc1cc2c(cc1O)C(c1ccccc1)CNCC2 (configuration not stated),,inactive: 9.48%
COC(=O)N1C(=O)[C@@](c2ccc(OC)cc2)(C(C)C)N1C(=O)OC,,inactive: 27.6%
COC(C/C=C/C(=O)[C@H](C)OCc1ccccc1)OC,,inactive: -2.67%
CN1CCN(Cc2nc3ccccc3c(=O)n2Cc2nc(-c3ccc4ccccc4c3)cs2)CC1,,inactive: -1.87%
Cn1ccnc1SCC(=O)c1ccc(Cl)cc1,,inactive: 26.3%
Cc1[nH][nH]c(=O)c1C(c1ccccc1[N+](=O)[O-])C(C#N)C#N (configuration not stated),,inactive: -0.569%
COc1cc(/C=C2/SC(=S)N(CCC(=O)N3CCN(C)CC3)C2=O)cc(OC)c1OC,,inactive: 6.53%
COC(C[C@H]1O[C@H]1C(=O)[C@H](C)OCc1ccccc1)OC,,inactive: 4.05%
CN(C)/C=C1\C=C(c2ccccc2)OC1=O,,inactive: 12.3%

SMILES,Potency,activation
N#C/C(=C(/O)COC(=O)CCCNC(=O)c1ccc(Cl)cc1)c1nc2ccccc2[nH]1,,inactive: 5.64%
O=C(/C=C/Nc1cccc(O)c1)c1ccccc1,active: 14.1 µM,
CC(C)N1C(=O)/C(=C\c2nc3ccccc3c(=O)n2-c2ccccc2)c2ccccc21,,inactive: 18.1%
O=C(Nc1nc2cc3c(cc2s1)OCCO3)c1ccc([N+](=O)[O-])o1,active: 7.08 µM,
CN1c2ccccc2C(C)(C)C12C=Cc1cc(O)ccc1O2 (configuration not stated),,inactive: 12.2%
O=C(Nc1nnc([C@H]2C[C@H](O)[C@@H](CO)O2)s1)c1cccc(OC(F)(F)F)c1,,inactive: 15.5%
O=C(CCc1nc2ccccc2c(=O)[nH]1)Nc1nc(-c2cccs2)cs1,active: 10 µM,
COC(C[C@H]1O[C@H]1C(=O)[C@@H](C)OCc1ccccc1)OC,,inactive: 3.08%
O=C(Nc1ccc(Cl)cc1)Nc1ccccn1,active: 10 µM,
CCCCN(CC)CCCNC(=O)c1cc2c(-c3ccc(OC)c(OC)c3)nn(C)c2s1,,inactive: 9.01%
CCn1c(=O)c([N+](=O)[O-])c(NCc2ccco2)c2ccccc21,active: 8.91 µM,
CCOc1cccc(CNc2ccc(O)cc2)c1OCc1ccccc1Cl,,inactive: 6.63%
Cc1ccc(C2C(C#N)=C(N)Oc3cc(C)oc(=O)c32)o1 (configuration not stated),,inactive: 11.7%
COC(C[C@@H]1O[C@@H]1C(=O)[C@H](C)OCc1ccccc1)OC,,inactive: 0.628%
O=C(/C=C/c1ccco1)Oc1cccc2cccnc12,,inactive: 14.3%
O=[N+]([O-])c1cccc(C=NN=Cc2ccccc2O)c1,active: 10 µM,
CSc1nnc(N2C(=O)C(O)=C(C(=O)c3ccco3)C2c2ccccc2F)s1 (configuration not stated),active: 14.1 µM,
Cc1ccn2c(Nc3ccc4c(c3)OCO4)c(-c3ccc(O)cc3)nc2c1,,inactive: 21.3%
COc1cccc(NC(=O)CSc2c3c(nc4ccccc24)CCCC3)c1,,inactive: -2.63%
Cc1c(N2C(=O)/C(=C\C3CC=CCC3)SC2=S)c(=O)n(-c2ccccc2)n1C (configuration not stated),,inactive: 25.3%
c1coc(-c2cnc3ccccc3n2)c1,active: 3.98 µM,
CC[n+]1c(/C=C2/C=C(C)CC(C)C2)sc2ccccc21 (configuration not stated),,inactive: 21.6%
COCCCNC(=O)CSc1c2c(nc3ccc(Cl)cc13)CCCC2,,inactive: 26.3%
O=C(CCN1C(=O)/C(=C\c2ccccc2)SC1=S)NCCCN1CCOCC1,,inactive: 4.08%
Cc1ccc2nc(-c3ccc(O)cc3)c(Nc3ccc4c(c3)OCCO4)n2c1,,inactive: 16.3%
CCC1CCCCN1CCCNC(=O)c1cc2c(Cl)nc3ccccc3c2s1 (configuration not stated),,inactive: 16.7%
